# Part of at least one peptide drawing is inferred or uncertain, most often the ends. Ends that are not written are not given here.
# Columns and labels:
# Format in all cases: cell-based, human
# hPBMCs [1] = assay: LPS neutralisation in hPBMCs (cytokine ELISA); details: inhibition of LPS evoked response vs control cells (100%)
# THP-1 [2] = assay: LPS neutralisation in THP-1 cells (cytokine ELISA); details: inhibition of LPS evoked response vs control cells (100%)
# hPBMCs [3] = assay: Peptide-induced MCP-1 production in hPBMCs (ELISA); details: MCP-1 production vs control cells (100%)
# THP-1 [4] = assay: Migration assay, THP-1 cells (CHEMOTX); details: cells migrated through filter after 2 hours
Sequence,LPS neutralisation hPBMCs IL-6 (hPBMCs [1]),LPS neutralisation hPBMCs IL-8 (hPBMCs [1]),LPS neutralisation hPBMCs IL-10 (hPBMCs [1]),LPS neutralisation hPBMCs TNFα (hPBMCs [1]),LPS neutralisation THP-1 TNFα (THP-1 [2]),Peptide-induced hPBMCs MCP-1 (hPBMCs [3]),Migration THP-1 (THP-1 [4])
RFGRFLRKIRRFRGKVTITIQGSARF [CMAP26 (P14→G)],++ (>95% inhibition),+ (>75% inhibition),++ (>95% inhibition),++ (>95% inhibition),+ (>75% inhibition),++ (>480% MCP-1 production (>95% of max.)),− (<1000 cells migrated)
RFGRFLRKIRRFRLKVTITIQGSARF [CMAP26 (P14→L)],− (<25% inhibition),+/− (>25% inhibition),+ (>75% inhibition),+ (>75% inhibition),++ (>95% inhibition),− (<200% MCP-1 production (<25% of max.)),− (<1000 cells migrated)
"RFGRFLRKIRRLRPK [CMAP(1-15) (F12→L), RFGRFLRKIRRLRPK]",− (<25% inhibition),,,+/− (>25% inhibition),+ (>75% inhibition),,− (<1000 cells migrated)
"RFGRFLRKIRRWRPK [CMAP(1-15) (F12→W), RFGRFLRKIRRWRPK]",+ (>75% inhibition),,,+ (>75% inhibition),+ (>75% inhibition),,+ (>2000 cells migrated)
